From PubChem BioAssay AID1645882 (National Center for Advancing Translational Sciences (NCATS), 2021)
Hit rate of the full screen: of about 16,000 compounds, about 120 (0.75%) were called active. Inconclusive results (about 4%) are left out. Calls follow the shape of the dose curve; as a rule, active = well fitted inhibition curve with a large enough effect; inconclusive = small, poorly fitted or top-dose-only effect; inactive = no such curve, though single readings can be large or run the other way. The list shows a part of the results.

target: Rap guanine nucleotide exchange factor 3 (Homo sapiens) (UniProt O95398); assay: Validation qHTS for antagonist of cAMP-regulated guanine nucleotide exchange factor 3 (EPAC1); details: EPAC1 Rap1B-BODIPY-GDP exchange, fluorescence; series mostly up to 150 µM; activity change, negative = inhibition: at the top concentration;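 also: plate controls were DMSO for no effect and ATA control for full effect; nearly all actives have a fitted effect of over 75% in size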
Chain of UniProt O95398 (O95398 whole entry, looked up): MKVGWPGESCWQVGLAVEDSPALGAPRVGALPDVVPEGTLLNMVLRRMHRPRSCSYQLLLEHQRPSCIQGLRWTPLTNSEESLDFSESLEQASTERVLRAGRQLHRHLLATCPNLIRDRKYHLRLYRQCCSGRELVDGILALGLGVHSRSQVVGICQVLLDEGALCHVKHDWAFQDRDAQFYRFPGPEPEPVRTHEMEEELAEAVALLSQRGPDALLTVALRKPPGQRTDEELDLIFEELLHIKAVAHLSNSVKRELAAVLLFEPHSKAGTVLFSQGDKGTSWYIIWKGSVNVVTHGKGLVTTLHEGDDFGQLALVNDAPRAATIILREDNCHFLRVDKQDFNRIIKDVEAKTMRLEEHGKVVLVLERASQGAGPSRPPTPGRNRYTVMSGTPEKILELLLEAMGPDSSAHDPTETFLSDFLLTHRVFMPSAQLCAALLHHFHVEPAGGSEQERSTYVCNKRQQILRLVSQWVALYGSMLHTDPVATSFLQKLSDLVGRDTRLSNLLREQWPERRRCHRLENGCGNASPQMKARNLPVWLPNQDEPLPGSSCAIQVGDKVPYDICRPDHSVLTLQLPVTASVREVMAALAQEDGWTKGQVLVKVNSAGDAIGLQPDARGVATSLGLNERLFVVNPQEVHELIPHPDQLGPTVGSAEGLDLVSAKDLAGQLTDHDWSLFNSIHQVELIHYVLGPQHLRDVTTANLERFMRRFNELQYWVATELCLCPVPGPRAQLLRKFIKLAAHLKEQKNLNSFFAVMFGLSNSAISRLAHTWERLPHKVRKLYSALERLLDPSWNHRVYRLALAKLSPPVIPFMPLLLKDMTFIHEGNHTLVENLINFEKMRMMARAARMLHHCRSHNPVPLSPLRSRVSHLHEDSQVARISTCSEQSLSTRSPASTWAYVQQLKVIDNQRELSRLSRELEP
Summary of the method: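 Nucleotide exchange followed as fluorescence loss when BODIPY-GDP leaves Rap1B (480 nm excitation, 540 nm emission), read at 5 min intervals over 30 min. Reaction: 100 nM EPAC1, 250 nM RAP1B-BODIPY-GDP, 50 uM GDP; ATA and DMSO define normalization.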

Row | SMILES | activity change, negative = inhibition
1 | CCCCCCCCCCCCCCSCC(=O)O | inactive: -12.2% [at 75.8 µM]
2 | COc1ncc2nc(-c3cccs3)c(=O)n(C)c2n1 | inactive: 6.94%
3 | CCCn1cnc2c1c(=O)n(CCCCC(C)=O)c(=O)n2C | inactive
4 | O=C(O)CN(CCN(CC(=O)O)CC(=O)O)CCN(CC(=O)O)CC(=O)O | inactive
5 | CC(C)(CO)Cc1cc(C(C)(C)C)c(O)c(C(C)(C)C)c1 | inactive: 3.54% [at 75.8 µM]
6 | O=C1CCC[C@@H]2Cc3nc4cc5c(cc4cc3[C@@H]3CCN1[C@H]23)OCO5 | inactive: 4.52%
7 | C#CCN(C)CCCOc1ccc(Cl)cc1Cl | inactive
8 | CCc1cc2c(c(CC)n1)CCC(=O)N2Cc1ccc(-c2ccccc2-c2nn[nH]n2)cc1 | inactive: 3.87%
9 | COc1ccccc1-c1cc(NCc2cccc(C)c2)ncn1 | inactive: -9.2%
10 | COC(=O)C1=C(C(=O)OC)[C@]2([C@@H]3C/C=C\CN[C@@H](Cc4ccccc4)C(=O)N3Cc3ccccc3)C=C[C@H]1O2 | inactive: -23.7%
11 | CCCCCCCCCCCCCCCCCCCCCC(=O)Nc1ccn([C@@H]2O[C@H](CO)[C@@H](O)[C@@H]2O)c(=O)n1 | inactive: 19.5%
12 | CC(C)NCC(O)c1cc(O)cc(O)c1 (stereo unspecified) | inactive
13 | COc1ccc(NC(=O)N2CCC3(CC2)CCN(C(=O)c2cccn2C)CC3)cc1 | inactive: 22.1%
14 | O=C(NCC1(N2CCOCC2)CCCC1)c1cnn(-c2nccc(-c3ccco3)n2)c1C1CC1 | inactive: 19.5%
15 | CC(=O)/C(C)=N/O | inactive: -6.88% [at 75.8 µM]
16 | O=C1CC[C@@H](C(=O)N[C@H]2C[C@@H]2c2ccccc2)N1 | inactive: 1.53%
17 | N#C[C@H]1C[C@H]2C[C@@H]2N1C(=O)[C@@H](N)C12CC3CC(CC(O)(C3)C1)C2 | inactive: 22.1%
18 | O=C1OC(OC(=O)c2cccnc2Nc2cccc(C(F)(F)F)c2)c2ccccc21 (stereo unspecified) | inactive: 13.1%
19 | O=C1[C@H](Cc2ccccc2)NCCCC[C@@H](c2ccco2)N1Cc1ccccc1 | inactive: -9.86%
20 | COC(=O)C1=C(C)NC(C)=C(C(=O)OC(C)C)C1c1cccc2nonc12 (stereo unspecified) | inactive
21 | CC1(C)CC[C@]2(C(=O)O)CC[C@]3(C)C(=CCC4[C@@]5(C)CC[C@H](O)C(C)(C)[C@@H]5CC[C@]43C)C2C1 (stereo partly specified) | inactive: 19.7%
22 | COCCn1c(=O)c(C)nc2cnc(N(C)C)nc21 | inactive: 7.17%
23 | CO[C@H]1[C@H](NC(=O)c2ccsc2)c2ccccc2C12CCN(Cc1cccn1-c1ccccn1)CC2 | inactive: 9.35%
24 | COc1cc(OC)c(C(=O)CCCCN2CCC3(CC2)NC(=O)NC3=O)cc1NS(=O)(=O)c1ccc(C(F)(F)F)cc1 | inactive
25 | CC1(C)SC2C(NC(=O)Cc3ccccc3)C(=O)N2C1C(=O)O (stereo unspecified) | inactive: -9.06%
26 | c1ccc2nc3ccccc3cc2c1 | inactive: 10.5%

Row | SMILES | activity change, negative = inhibition
27 | O=C1CCC[C@@H]2C[C@@]3(C[C@@H]4CCN1[C@H]24)Nc1cc(Cl)ccc1NC3=NC1CCCCC1 | inactive: -11.3%
28 | Cc1cc2ccccc2cn1 | inactive: 17.8%
29 | CC[C@@]12CCCN3CCc4c(n(c5ccccc45)[C@](O)(C(=O)OC)C1)[C@H]32 | inactive: -6.08%
30 | C/C=C/c1ccc2oc(-c3ccc(O)cc3)c(C)c2c1 | inactive: -29.4%
31 | O=C1CC[C@H](C(=O)N2CCCCC2)N1 | inactive: 40%
32 | OC(c1ccc2c(c1)CN(Cc1cccn1-c1ncccn1)CCO2)C1CCCCC1 (stereo unspecified) | inactive: 7.08%
33 | O=C(O)/C=C/c1cnc[nH]1 | inactive: 7.53% [at 75.8 µM]
34 | N[C@@H](CSCCCO)C(=O)O | inactive: 8.65%
35 | COc1ccc(CN2CCCC(n3cc(C(=O)NC4CCCC4)nn3)C2)c(O)c1 (stereo unspecified) | inactive: 8.82%
36 | CC(C)CN1CCC(=O)N(CCOc2ccccc2)CC1 | inactive: 5.12%
37 | CN1CCN(c2ncc3nc(-c4cccc(C#N)c4)c(=O)n(Cc4ccc(F)cc4)c3n2)CC1 | inactive: 12.9%
38 | Cc1ccc(CN2CCc3nnc(C(NC(=O)c4ccoc4)C(C)C)n3CC2)cc1C (stereo unspecified) | inactive: -18.3%
39 | N[C@@H](CSSC[C@H](N)C(=O)O)C(=O)O | inactive: 0.0578%
40 | CN(C)c1ccc(C(=O)N2CCCC(Cn3cc(C(=O)N4CCCC4)nn3)C2)cc1 (stereo unspecified) | inactive: -23.2%
41 | CC1COc2c(N3CCN(C)CC3)c(F)cc3c(=O)c(C(=O)O)cn1c23 (stereo unspecified) | inactive
42 | CS(=O)(=O)NC(=O)CCC/C=C\C[C@H]1C(=O)C[C@@H](O)[C@@H]1/C=C/[C@H](O)COc1ccccc1 | inactive: 25.9%
43 | Cc1cc(C(=O)NCc2nc(-c3cccc(NC(=O)c4cc(C)oc4C)c3)oc2C)nc(C)n1 | inactive: 6.27%
44 | O=C(N[C@H]1CCC(=O)N(CCSc2ccc(Br)cc2)CC1)OCc1ccccc1 | inactive: -0.101%
45 | CC(C)=CCC1C(=O)N(c2ccccc2)N(c2ccccc2)C1=O | inactive: 57.2%
46 | CN1CCN(c2cc3c(cc2F)c(=O)c(C(=O)O)cn3-c2ccc(F)cc2)CC1 | inactive: 16.6%
47 | O=C(O)CCCC[C@@H]1SC[C@@H]2NC(=O)N[C@@H]21 | inactive: 5.2%
48 | C[N+]1(C)CCc2cc3c(cc2[C@@H]1[C@@H]1C(=O)Oc2c1ccc1c2OCO1)OCO3 | inactive
49 | Cn1cc(-c2nc3cnc(N4CCNCC4)nc3n(C)c2=O)c2ccccc21 | inactive: -0.141%
50 | Cc1cc(=O)[nH]c2ccc(O)cc12 | inactive: -6.02%
51 | CCOC(=O)Nc1ccc(NCc2ccc(F)cc2)nc1N | inactive
